Test results as given in paper PMC12872393 (Life Science Alliance, 2026).

Molecular target: T1, biotinylated AviTag-His6-NCOA4^383−522-MBP (human, UniProt Q13772 383-522, biotin on the AviTag (BirA co-expressed))
T1 construct: N-terminal AviTag followed by His6; C-terminal MBP; source: E. coli BL21 Tuner DE3, purified (Ni-NTA, MBPTrap, SEC); not shown: AviTag, N-terminal, kept; His6, N-terminal, kept; MBP, C-terminal, kept
T1 sequence (looked up): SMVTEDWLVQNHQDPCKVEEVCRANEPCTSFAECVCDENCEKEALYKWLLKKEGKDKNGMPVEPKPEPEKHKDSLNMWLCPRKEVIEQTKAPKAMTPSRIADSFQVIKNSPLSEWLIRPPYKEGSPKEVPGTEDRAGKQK
Experiment: BLI; biotinylated NCOA4^383−522 constructs loaded to 0.6 nm on streptavidin biosensors; GATE16 construct or GST in solution (up to 5 μM); 20 mM Tris, 150 mM NaCl, 0.05% Tween-20, 1% BSA, 1 mM DTT, pH 7.5; 30°C
Conditions: both partners purified

B1: LDS* (GST-GATE16)2 (natural protein)
chain: not shown
notes: GATE16, LC3/GABARAP-family protein, Y49A and L50A in the LIR docking site; also called LDS* mutant of GST-GATE16; Y49 and L50 mutated to alanines; source: made by Q5 site-directed mutagenesis of GST-GATE16
- binding result: binds
